Usually Kd stands for the free concentration of one partner at which half of the binding sites on the other are occupied at equilibrium, for simple one-to-one binding.

Substitutions are numbered along the chain they refer to. Names and notes keep the numbering of the source.

Common to all, as to assay: SPR
Background: In SPR one partner is held on a chip, and binding of the other changes the refractive index at the surface.

Test [1] concerns the target C3c (human, UniProt P01024).
In test [2] the target is C3 (human, UniProt P01024).
Test [3] addresses C3b (human, UniProt P01024).

B1: Vector GGE protein (DK)C3i-Fc4-CNP36 (protein)
chain: MEFGLSWLFLVAILKGVQCDKGICVWQDWGAHRCTNGGGGSGGGGSGGGGSDKRV[sequence of human IgG4 Fc with S228P (EU numbers) omitted]GGGGSGGGGSGGGGSGGGGSEHPNARKYKGANKKGLSKGCFGLKLDRIGSMSGLGC
As to B1, the Kd in test [1] was 7.97 nM; in test [2], 48.9 nM; in test [3] it was 12.7 nM.

B2: Vector KKT protein C3i(N15Q)-Fc4-CNP36 (protein)
chain: B1 chain with N36Q
B2: the results for the Kd in test [1], in test [2] and in test [3] were 10.8 nM, 4.71 nM and 9.63 nM, respectively.

B3: Vector KPT/KMR protein C3i(N15Q)-Fc4-C3i(N15Q) (protein)
chain: MEFGLSWLFLVAILKGVQCDKGICVWQDWGAHRCTQGGGGSGGGGSGGGGSDKRV[sequence of human IgG4 Fc with S228P (EU numbers) omitted]GGGGSGGGGSGGGGSGGGGSGICVWQDWGAHRCTQ
Consider B3, for which the Kd in test [1] was found to be 0.382 nM; in test [2] it was 5.67 nM; in test [3], 0.96 nM.

B4: Vector KKA protein C3i(N15Q)-Fc4-Endostatin (protein)
chain: MEFGLSWLFLVAILKGVQCDKGICVWQDWGAHRCTQGGGGSGGGGSGGGGSDKRV[sequence of human IgG4 Fc with S228P (EU numbers) omitted]GGGGSGGGGSGGGGSGGGGSHSHRDFQPVLHLVALNSPLSGGMRGIRGADFQCFQQARAVGLAGTFRAFLSSRLQDLYSIVRRADRAAVPIVNLKDELLFPSWEALFSGSEGPLKPGARIFSFDGKDVLRHPTWPQKSVWHGSDPNGRRLTESYCETWRTEAPSATGQASSLLGGRLLGQSAASCHHAYIVLCIENSFMTASK
In the case of B4, the results for the dissociation constant (Kd) in test [1], in test [2] and in test [3] were 8.62 nM, 2.31 nM and 9.2 nM, respectively.

B5: Vector KPC protein C3i(N15Q)-Fc4 (protein)
chain: MEFGLSWLFLVAILKGVQCDKGICVWQDWGAHRCTQGGGGSGGGGSGGGGSDKRV[sequence of human IgG4 Fc with S228P (EU numbers) omitted]
For B5, the Kd in test [1] came to 53.5 nM; in test [2], 1.37 nM; in test [3], 42.9 nM.

B6: Vector GGG protein Fc4-C3i (protein)
chain: MEFGLSWLFLVAILKGVQCDKRV[sequence of human IgG4 Fc with S228P (EU numbers) omitted]GGGGSGGGGSGGGGSGGGGSGICVWQDWGAHRCTN
B6: the Kd in test [1] is 424 nM; in test [2], 25.4 nM; in test [3], 810 nM.

B7: Vector KAG protein Fc4-C3i(N15Q) (protein)
chain: MEFGLSWLFLVAILKGVQCDKRV[sequence of human IgG4 Fc with S228P (EU numbers) omitted]GGGGSGGGGSGGGGSGGGGSGICVWQDWGAHRCTQ
Consider B7, for which the Kd in test [1] worked out at 121 nM; in test [2] it was 50.3 nM; in test [3], 125 nM.

Values taken from patent publication US20260297165 (published 2026).
